# Source: the supplement of paper PMC12067093, “Discovery and optimisation of a covalent ligand for TRIM25 and its application to targeted protein ubiquitination” (Chemical Science, 2025)
# Targets with the largest changes are over-represented here; the source holds about 21,000 in all.
# Compound: CC1Cc2ccccc2N1C(=O)C1CCCN(C1)C(=O)CCl (mixture of isomers) [TRIM25 ligand 11 (diastereomer mixture)]
# Experiment: probe-labelled cysteine peptide fold change vs DMSO (competition) (log2 fold change); higher = less target engagement (more negative = stronger competition)
# Conditions: THP-1, incubation time: 4 h
# 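Further: competitive chemoproteomic profiling in live THP-1 cells with an iodoacetamide desthiobiotin (IA-DTB) probe, comparing probe-labelled peptide intensities in compound-treated cells against DMSO-treated controls.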
Target,probe-labelled cysteine peptide fold change (10 µM),probe-labelled cysteine peptide fold change (50 µM)
PRMT1_Q99873-3_15_AAAEAANCIMEVSCGQAESSEK (UniProt Q99873),0.348,0.353
POGZ_Q7Z3K3_532_HHVELDQQNGEVDGHTICQHCYR (UniProt Q7Z3K3),0.124,-0.154
PRPF6_O94906_513_ANGVEINREQWIQDAEECDR (UniProt O94906),-0.43,-0.344
PRPF6_O94906_807_ALQECPNSGILWSEAIFLEARPQRR (UniProt O94906),-0.16,0.0594
PIP4K2A_P48426_343_CHENSPR (UniProt P48426),0.365,-0.0671
PREP_P48147_352_SNFLVLCYLHDVK (UniProt P48147),0.19,0.15
PFN1_P07737_128_KCYEMASHLRR (UniProt P07737),-0.652,-0.367
PLEC_Q15149_4245+4254_CITDPQTGLCLLPLK (UniProt Q15149),0.0469,0.552
POLR3A_O14802_1174_VKPGDVAVHGEAVVCVTPR (UniProt O14802),0.0669,0.179
PIK3CD_O00329_90_LCDVQPFLPVLR (UniProt O00329),0.0535,0.0689
PRRC2C_Q9Y520_620_QESENSCNK (UniProt Q9Y520),0.0427,0.153
POLR2A_P24928_71_CQTCAGNMTECPGHFGHIELAK (UniProt P24928),-0.199,-0.159
PLXNB2_O15031_279_DPDIHAAAFGTCLAASVAAPGSGR (UniProt O15031),-0.284,-0.301
PPP4R1_Q8TF05_566_SDLQDELDINELPNCK (UniProt Q8TF05),-0.0791,-0.173
PLEC_Q15149_3299_GCLDEETSR (UniProt Q15149),0.0354,-0.102
PLEKHA2_Q9HB19_228_FFALDDFTICYFK (UniProt Q9HB19),0.34,-0.203
PON2_Q15165_283_VLELDTLVDNLSIDPSSGDIWVGCHPNGQK (UniProt Q15165),0.0993,0.0969
POLA1_P09884_1180_AGDTVSYVICQDGSNLTASQR (UniProt P09884),-0.229,0.0571
PRXL2A_Q9BRX8_88_RPGCFLCR (UniProt Q9BRX8),-2.16,-2.01

Target,probe-labelled cysteine peptide fold change (10 µM),probe-labelled cysteine peptide fold change (50 µM)
PRDX1_Q06830_71+83_KLNCQVIGASVDSHFCHLAWVNTPKK (UniProt Q06830),-0.375,-0.184
PGAM1_P18669_55_DAGYEFDICFTSVQK (UniProt P18669),0.108,0.0968
PLD4_Q96BZ4_313_FQPFHGLFDGVPTTAYFSASPPALCPQGR (UniProt Q96BZ4),-0.3,-0.836
PELP1_Q8IZL8_71_SAPHLPGLMCLLR (UniProt Q8IZL8),-0.312,-0.712
PPIP5K1_Q6PFW1_627_SANMNGLLDSDGDSLSSCQHR (UniProt Q6PFW1),-0.0216,-0.728
PHKB_Q93100-2_3_ACSPDAVVSPSSAFLR (UniProt Q93100),-0.519,-0.434
PNPO_Q9NVS9_156_KLPEEEAECYFHSR (UniProt Q9NVS9),0.0359,-0.0161
POSTN_Q15063_80_TTVLYECCPGYMR (UniProt Q15063),0.757,0.621
POLD3_Q15054_398_TYLDGEGCIVTEK (UniProt Q15054),-0.187,0.0619
PLEKHF2_Q9H8W4_129_CVTDLLSK (UniProt Q9H8W4),0.123,0.4
PRXL2A_Q9BRX8_85_RPGCFLCR (UniProt Q9BRX8),-2.41,-2.22
PRKCSH_P14314_56_GVSLTNHHFYDESKPFTCLDGSATIPFDQVNDDYCDCK (UniProt P14314),-0.413,-0.592
PLXND1_Q9Y4D7_752_CEASPNPTSPQDCPR (UniProt Q9Y4D7),0.138,0.00613
PREP_P48147_57_ITVPFLEQCPIR (UniProt P48147),0.0699,-0.0713
PECAM1_P16284_476+481_DNPTEDVEYQCVADNCHSHAK (UniProt P16284),0.0845,-0.173
PRKCB_P05771_86_CHEFVTFSCPGADK (UniProt P05771),0.158,0.0763
PPIH_O43447_174_LPVVISQCGEM (UniProt O43447),-0.0812,-0.166
PFAS_O15067_336_IRDVQCTGR (UniProt O15067),-0.0959,0.0849
PPP6R3_Q5H9R7_216_HSNASQSLCEIVR (UniProt Q5H9R7),0.0678,-0.153
